Assay results: PMC6919601, “Identification of Plasmodium dipeptidyl aminopeptidase allosteric inhibitors by high throughput screening” (PLoS ONE, 2019)
The campaign covered roughly 110,000 compounds. About 230 (0.21%) showed an effect of 50% or more. The list shows a part of the results.

What follows are molecules tested against DPAP1 (Plasmodium falciparum, UniProt Q8IIJ9) (assay: primary screen, percent inhibition; read by cleavage of a fluorogenic dipeptide substrate; higher = more effect of the substance).
Set-up: species or system P. falciparum D10 trophozoite lysates; single well
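Note: 30 min substrate incubation versus DMSO and 10 µM JCP410 controls.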

DPAP1, sequence (Q8IIJ9 whole entry, looked up): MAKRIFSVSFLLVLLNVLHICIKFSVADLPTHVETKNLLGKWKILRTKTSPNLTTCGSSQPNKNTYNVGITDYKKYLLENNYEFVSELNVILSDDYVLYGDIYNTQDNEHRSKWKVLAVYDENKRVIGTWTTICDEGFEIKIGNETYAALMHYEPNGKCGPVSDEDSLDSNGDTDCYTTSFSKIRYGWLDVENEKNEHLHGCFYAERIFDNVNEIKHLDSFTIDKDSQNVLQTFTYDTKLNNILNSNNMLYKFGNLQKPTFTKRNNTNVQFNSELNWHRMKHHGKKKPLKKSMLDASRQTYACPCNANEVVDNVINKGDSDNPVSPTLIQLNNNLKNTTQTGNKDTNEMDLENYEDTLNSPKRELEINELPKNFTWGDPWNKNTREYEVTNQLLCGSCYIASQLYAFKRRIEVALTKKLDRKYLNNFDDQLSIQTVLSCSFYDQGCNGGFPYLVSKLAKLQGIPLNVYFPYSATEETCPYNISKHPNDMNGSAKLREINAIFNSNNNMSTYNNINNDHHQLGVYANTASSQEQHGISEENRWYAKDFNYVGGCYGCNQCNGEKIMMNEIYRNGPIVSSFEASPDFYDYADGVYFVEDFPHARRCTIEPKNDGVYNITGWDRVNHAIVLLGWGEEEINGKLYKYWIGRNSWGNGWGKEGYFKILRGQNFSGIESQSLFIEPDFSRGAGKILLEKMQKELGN

SMILES | % Inhibition @ 10 uM [%]
Cc1ccc(C2=NN(CC(=O)N3CCC(Cc4ccccc4)CC3)C(=O)CC2)cc1 | 3.79
Cc1ccc2c(O)c(C(=O)c3ccc(Cl)cc3)cnc2n1 | -3
CCc1ccc(OCC(O)CN2CCN(c3ccccc3)CC2)cc1 (stereo not shown) | -0.261
Cn1c(CO)nc2c3ccccc3ccc21 | -5.82
N#Cc1c(NC(=O)c2ccc3c(c2)OCO3)sc2c1CCCCC2 | 2.69
O=C1S/C(=C\c2ccc3c(c2)OCO3)C(=O)N1Cc1ccc(F)cc1 | -4.82
CC(C)CCNC(=O)c1nnc(-c2cccnc2)o1 | 2
Cc1ccc(SCC(=O)Nc2ccccc2C#N)cc1 | -7.34
Cc1ccc(S(=O)(=O)/C(C#N)=C/c2c(Oc3ccc(C)cc3C)nc3ccccn3c2=O)cc1 | -3.23
COc1cc(OC)c(C2C(C#N)=C(N)N(c3ccc(F)cc3)C3=C2C(=O)CCC3)cc1OC (stereo not shown) | 14.8
CCCCNC(=O)c1sc2nc(-c3ccc(OC)cc3)cn2c1C | 1.55
CCC(=O)NC(c1cccs1)c1ccc2ccccc2c1O (stereo not shown) | 5.75
CCN1c2cccc3cccc(c23)S1(=O)=O | -2.12
COCCN1C=C(C(=O)OC)C(c2cc(OC)c(OC)c(OC)c2)C(C(=O)OC)=C1 | -5.01
CC(C)C[C@H](NC(=O)c1ccc2ncccc2c1)C(=O)NCC#N | 10.2
COC(=O)CCc1sc2c(c1[N+](=O)[O-])NC(=O)CCC2 | -7.35
CCCNC(=O)C1CC(c2ccc(OC)cc2)=NO1 (stereo not shown) | -0.0115
COc1ccc(-c2noc(CCCN3C(=O)c4ccccc4C3=O)n2)cc1 | 2.31
Cc1ccc(C(=O)NC2=NC(=O)CC(CC(C)C)N2)cc1 (stereo not shown) | -5.52
Cc1nnn(C23CC4CC(CC(C(=O)NC(C)c5ccccc5)(C4)C2)C3)n1 (stereo not shown) | 1.49
CC(C)(C)C1(O)C(=O)Nc2ccccc21 (stereo not shown) | -2.74
CN(Cc1ccccc1)C(=O)Nc1noc2c1COc1ccccc1-2 | -2.28

SMILES | % Inhibition @ 10 uM [%]
COc1ccc(-c2cc(-c3ccc(OC)cc3)c3c(N)c(C(N)=O)sc3n2)cc1 | 19.8
COc1ccc(C2CC(c3ccc(Cl)cc3)=NN2c2cccc(C(F)(F)F)c2)c(OC)c1 (stereo not shown) | 5.53
CCc1ccc(-c2nc(CN3CCCC(C(=O)NC4CC4)C3)c(C)o2)cc1 (stereo not shown) | -4.71
O=S(=O)(NCC1CCCO1)c1ccc(S(=O)(=O)N2CCN(c3ncccn3)CC2)cc1 (stereo not shown) | -2.92
c1nc(N2CCCCCC2)c2c3c(sc2n1)CCCCC3 | 5.55
CCc1[nH]nc2c1C(C1CCCCC1)C(C#N)=C(N)O2 (stereo not shown) | -0.68
O=C1/C(=C/c2ccccc2F)CCC1C1CCCC1 (stereo not shown) | 27.4
COc1ccccc1N1CCN(C(=O)CN(C)S(=O)(=O)c2ccc(C)cc2)CC1 | -4.43
Fc1ccccc1CN1CCN(c2ncccn2)CC1 | 1.55
CCc1nnc(NC(=O)Cc2coc3c(C)c(C)ccc23)s1 | 2.62
Cc1nn(CC(=O)NC(C)CCc2ccccc2)c(=O)c2cc3sccc3n12 (stereo not shown) | 1.8
O=C1CC(Cc2ccc(Cl)cc2)C(=O)N1C1CCCCC1 (stereo not shown) | -6.7
CCCN(CCC)S(=O)(=O)c1ccc(C(=O)Nc2cccc(C)c2)cc1 | 3.53
COc1ccccc1C(=O)NC1(C(F)(F)F)C(=O)N(CC(C)C)C2=C1C(=O)CC(C)(C)C2 (stereo not shown) | -6.36
CCCCSc1nnc2c(n1)[nH]c1ccccc12 | 2.86
CSCCC(C(=O)Nc1ccccc1)N1C(=O)c2ccccc2C1=O (stereo not shown) | 4.11
CCC(C)NC(=O)CCC(=O)n1ncc2cc(Cl)ccc21 (stereo not shown) | -4.68
CCCn1c2ccccc2c2cnn(CC(=O)NCCC(C)C)c(=O)c21 | 2.59
CCOC(=O)c1sc2ncnc(OC)c2c1C | -0.631
O=c1oc(-c2ccccc2Cl)nc2sc3c(c12)CCC3 | -3.27
Cc1ccc2c(Cl)c(C(=O)N3CCN(C)CC3)sc2c1 | -3.85
CC1CN(Cc2ccccc2[N+](=O)[O-])CC(C)O1 (stereo not shown) | -2.36

SMILES | % Inhibition @ 10 uM [%]
CCOC(=O)c1noc2c1COc1ccccc1-2 | -1.51
CCCCc1ccc2nc3sc(C(=O)O)cc3cc2c1 | -3.13
COc1ccc(-c2cc(=O)c3ccccc3n2C)cc1 | -5.1
COCc1cc(C)n(CC(=O)Nc2cccc3ccccc23)c(=O)c1C#N | -2.77
CCCNC(=O)c1ccc(CSc2nc3ccncc3[nH]2)cc1 | 3.4
Cc1ccc2oc(=O)c3cnn(CC(=O)N4CCCCC4C)c3c2c1 (stereo not shown) | -0.0115
O=C(/C(=C/c1cccnc1)n1cncn1)c1ccc(Cl)cc1Cl | -1.71
Cc1ccc(NC(=O)c2ccc(Br)o2)cc1C | -4.86
O=C(NC(Cc1ccccc1)C(=O)O)c1cccnc1Cl (stereo not shown) | 11.8
O=C(O)CCC(=O)Nc1ccc(-c2nc3cc(C(=O)c4ccccc4)ccc3[nH]2)cc1 | 14.2
Cc1cccc(NS(=O)(=O)c2ccc(NC(=O)c3ccc([N+](=O)[O-])cc3)cc2)c1 | 2.55
Sc1ncnc2sc3c(c12)CCCC3 | 38
CC1CC(=O)C2=C(C1)OC(N)=C(C#N)C2c1ccc(F)cc1F (stereo not shown) | -3.13
c1ccc(-n2nnnc2-c2ccc(-c3nnnn3-c3ccccc3)cc2)cc1 | -5.34
Cc1ccc2onc(CNC(=O)NCCC3=CCCCC3)c2c1 | -3.73
COC(=O)CCC(=O)Nc1cccc2c(NC(=O)CCC(=O)OC)cccc12 | -2.66
CN(C)CCNc1ncnc2c1cnn2-c1ccc(Cl)cc1 | -4.82
CCN1C(=O)N/C(=C/c2ccccc2OC)C1=O | -11.2
COc1ccccc1[C@@H](C)C[C@H](NC(=O)c1ccc(-c2ccccc2Cl)cc1)C(=O)NCC#N | -1.5
COc1ccc(OC)c(C2C=C(c3ccc(C)cc3)Nc3ncnn32)c1 (stereo not shown) | -5.19
O=C(Nc1ccc(F)c(Cl)c1)c1sc2ccccc2c1Cl | 2.78
O=C1C2C3CCC(O3)C2C(=O)N1c1cccc(F)c1 (stereo not shown) | -5.67

SMILES | % Inhibition @ 10 uM [%]
Cc1ccc(-c2cccc(N)c2)o1 | 0.132
O=S(=O)(NCc1ccccc1Cl)c1ccc2[nH]c3c(c2c1)CCCC3 | -2.22
COc1ccc(-c2onc(C)c2C)cc1S(=O)(=O)NCCc1ccc(Cl)cc1 | -3.37
CCOCCCNC(=O)c1cc2c(=O)n3ccccc3nc2n1C | 1.1
OCCN(CCO)CC1CC=CCC1 (stereo not shown) | -0.603
Oc1ccccc1-c1noc(-c2ccccc2O)n1 | 0.526
Cc1onc(-c2ccccc2)c1C(=O)Nc1sc2c(c1C(N)=O)CCCCC2 | 15
COc1ccccc1/C=C/CN1CCOCC1 | -1.78
CCN(CC)C(=O)c1sc2ccccc2c1Cl | -2.42
COc1ccc(C(=O)C2=C(O)C(=O)N(c3ncccn3)C2c2cccc(Br)c2)cc1 (stereo not shown) | 1.61
CCN(Cc1ccncc1)C(=O)c1cccc([N+](=O)[O-])c1C | 1.04
O=S(=O)(c1cc(Cl)ccc1Cl)N1CCCC1 | -4.91
Cc1nc2nc(CN)nn2c(C)c1CCC(=O)O | -2.39
CC(=O)Nc1ccc(-c2cc(-c3cccc(NC(C)=O)c3)nc(-c3ccccc3)n2)cc1 | 5.64
COc1cc(C(=O)Nc2ccc(C)cc2C)ccc1OC(F)F | 3.24
NC(=S)NC1CCS(=O)(=O)C1 (stereo not shown) | 0.884
Cn1cnc([N+](=O)[O-])c1Sc1cn2c(n1)CCC2 | -3.48
Cc1oc2cc3oc(=O)c(CCC(=O)NCc4ccc(F)cc4)c(C)c3cc2c1C | -2.57
O=C(c1ccccc1)c1ccccc1C(=O)N(C1CCCCC1)C1CCCCC1 | 1.17
CO/C(O)=C1/C(C)=NC2=C(C(=O)CC(c3ccccc3)C2)C1c1ccc(Cl)cc1 (stereo not shown) | -0.0953
CCC(=O)Nc1ccc(Cl)c(NC(=O)c2ccccc2F)c1 | -3.23
COc1ccccc1Nc1cc(C)nc2cc(Cl)ccc12 | -15.1

SMILES | % Inhibition @ 10 uM [%]
COc1cccc(CNc2nc3nc4c(c(O)n3n2)CCC4)c1 | -8.21
CCC(=O)NS(=O)(=O)c1cccnc1Nc1ccccc1Cl | 0.245
CCCOC(=O)C1=C(C)NC(=O)NC1c1ccc(Cl)cc1Cl (stereo not shown) | -4.18
O=C1NC(=O)C(=Cc2c[nH]nc2-c2ccccc2)C(=O)N1 | -2.77
Cc1cc(SCc2ccccc2)n2ncnc2n1 | 4.9
O=C(NCCCCCCNC(=O)c1ccco1)c1ccco1 | 3.34
OCC1CCCN1Cc1ccc(F)cc1F (stereo not shown) | -1.41
c1ccc(Cn2cc(Cn3nnc(-c4ccccc4)n3)nn2)cc1 | -4.35
CC(NC(=O)CSc1nnc2c(n1)[nH]c1ccccc12)c1ccccc1 (stereo not shown) | 0.0719
NS(=O)(=O)c1ccc(NC(=S)NC(=O)c2cccnc2)cc1 | -5.33
Cc1cc(C)c2c(-n3cccc3)c(C(=O)N3CCCCC3)sc2n1 | -4.91
O=C(c1ccccc1Cl)N1CCOCC1 | 1.55
CCOC(=O)c1c(NC(C)=O)sc2c(O)c([N+](=O)[O-])cc([N+](=O)[O-])c12 | -4.06
O=C(NC1CCCCC1)N1CCN(C2CCCCC2)CC1 | -2.28
CC1=CC(C)OC(c2ccc(OCC(O)CN3CCCCC3)cc2)C1 (stereo not shown) | 34.2
Cc1ccc(C2=C(C#N)C(N)=C(C#N)C3=CCCC32)c(C)c1 (stereo not shown) | -2.51
CCCSc1nnc(NC(=O)Cc2coc3ccc(C)cc23)s1 | -4.19
Cc1ccc(Cl)cc1NC(=O)c1ccccc1C | 0.247
